What is called IC50 is the midpoint of a concentration-inhibition curve.

Molecules are shown by their SMILES.

The target in the first test is T1, ectodomain of BACE (aa 1-454) fused to a myc-his tag, secreted from HEK293/BACEect. cells (Homo sapiens (Human), UniProt P56817). The test can be described thus: biochemical.
Details: not given
In the case of `CN1C(=O)C2(N=C1N)c1ccccc1CC21CCc2ccccc2CC1` (stereo not drawn) [Compound 399], half-maximal inhibition (IC50) required 0.0746 µM. In other words, the double-digit nanomolar range.

In the case of `COC1CCC2(CC1)Cc1ccc(Br)cc1C21N=C(N)N(N(C)C)C1=O` (stereo not drawn) [Compound 433], inhibition was half-maximal at 0.575 µM (IC50).

Take `CC#Cc1csc(-c2ccc3c(c2)C2(N=C(N)N(C(C)C)C2=O)C2(CCC(OC)CC2)C3)c1` (stereo not drawn) [Compound 169]: the IC50 worked out at 0.0203 µM.

In the case of `COC1CCC2(CC1)Cc1ccc(CCC3CC3)cc1C21N=C(N)N(CCC(F)(F)F)C1=O` (stereo not drawn) [Compound 371], inhibition was half-maximal at 0.0243 µM (IC50).

In the case of `COCCOc1ccc2c(c1)C1(C=C(N)N(CC(F)(F)F)C1=O)[C@]1(CC[C@H](OC)CC1)C2` (stereo partly drawn) [Compound 550], the IC50 stood at 0.077 µM.

Take `COC1CCC2(CC1)Cc1ccc(C#CC3CC3)cc1C21N=C(N)N(CCC(F)(F)F)C1=O` (stereo not drawn) [Compound 326]: half-maximal inhibition (IC50) required 0.0161 µM.

Take `COC1CCC2(CC1)Cc1ccc(-c3nc(Br)cs3)cc1C21N=C(N)N(C(C)C)C1=O` (stereo not drawn) [Compound 170]: it took 0.0897 µM to reach half-maximal inhibition (IC50).

As for `CN1C(=O)C2(N=C1N)c1cc(C#CC3CC3)ccc1CC21CCc2ccccc2CC1` (stereo not drawn) [Compound 402], the IC50 amounted to 0.0725 µM.

`COC1CCC2(CC1)Cc1ccc(CCC3CC3)cc1C21N=C(N)N(CC2CCN(C(C)=O)CC2)C1=O` (stereo not drawn) [Compound 372] showed an IC50 of 0.0097 µM.

In turn, `COCCN1C(=O)C2(N=C1N)c1cc(-c3cccnc3F)ccc1CC21CCc2ccccc2CC1` (stereo not drawn) [Compound 414] gave an IC50 of 0.0063 µM.

`COC1CCC2(CC1)Oc1ccc(OCC(F)(F)F)cc1C21N=C(N)N(C)C1=O` (stereo not drawn) [Compound 133] displayed an IC50 of 0.0385 µM.

`COCC#Cc1ccc2c(c1)C1(N=C(N)N(C)C1=O)C1(CCC(OC)CC1)C2` (stereo not drawn) [Compound 219]: the IC50 was determined as 0.0112 µM.

In turn, `COC1CCC2(CC1)Cc1ccc(-c3ccn(C4CC4)c(=O)c3)cc1C21N=C(N)N(C)C1=O` (stereo not drawn) [Compound 201] yielded an IC50 of 0.188 µM. This IC50 lies about 17-fold higher than the previous one.

As for `COCCN1C(=O)C2(N=C1N)c1cc(-c3cncc(F)c3)ccc1CC21CCc2ccccc2CC1` (stereo not drawn) [Compound 415], the IC50 turned out to be 0.0081 µM. This IC50 is about 23-fold lower than that of the molecule before.

On to `CCCN1C(=O)C2(N=C1N)c1cc(OCC3CC3)ccc1CC21CCC(OC)CC1` (stereo not drawn) [Compound 383], for which it took 0.0062 µM to reach half-maximal inhibition (IC50).

Molecule `COC1CCC2(CC1)Cc1ccc(-c3cncc(C#N)c3)cc1C21N=C(N)N(C(C)C)C1=O` (stereo not drawn) [Compound 156] came in with an IC50 of 0.0122 µM.

Take `COC1CCC2(CC1)Cc1ccc(-c3cc(Br)cs3)cc1C21N=C(N)N(C(C)C)C1=O` (stereo not drawn) [Compound 168]: it took 0.0293 µM to reach half-maximal inhibition (IC50).

`COC1CCC2(CC1)Cc1ccc(CCC3CC3)cc1C21N=C(N)N(Cc2ccc(C#N)cc2)C1=O` (stereo not drawn) [Compound 387] yielded an IC50 of 0.0155 µM.

In turn, `CC(C)N1C(=O)C2(N=C1N)c1cc(OCC(F)(F)F)ccc1CC21CCc2ccccc2CC1` (stereo not drawn) [Compound 413] gave an IC50 of 0.0483 µM.

Regarding `CC(C)N1C(=O)C2(N=C1N)c1cc(C#N)ccc1CC21CCc2ccccc2CC1` (stereo not drawn) [Compound 411], the IC50 came out at 0.0914 µM.

A further test concerns the target T1, ectodomain of BACE (aa 1-454) fused to a myc-his tag, secreted from HEK293/BACEect. cells.
Assay: not given
The note with it: footnote b: protocols described in Example 435.
For the molecule `CO[C@H]1CC[C@]2(CC1)Cc1ccc(CC3CCCCC3)cc1C21N=C(N)N(C)O1` (stereo partly drawn) [Compound 488], the IC50 worked out at 0.0763 µM.

On to `NC1=NC2(CS1)c1cc(Br)ccc1CC21CCC(O)CC1` (stereo not drawn) [Compound 443], for which the IC50 was found to be 6.23 µM.

`CO[C@H]1CC[C@]2(CC1)Cc1ccc(CC(C)C)cc1C21N=C(N)N(C(C)C)C1=O` (stereo partly drawn) [Compound 491]: the IC50 was 0.0782 µM.

Molecule `CO[C@H]1CC[C@]2(CC1)Cc1ccc(-c3ccc(C#N)s3)cc1C21N=C(N)N(C(C)C)C1=O` (stereo partly drawn) [Compound 568] came in with an IC50 of 0.547 µM.

As for `COC1CCC2(CC1)Cc1ccc(OCC(C)C)cc1C21N=C(N)N(CCF)C1=O` (stereo not drawn) [Compound 572], the IC50 was 0.007 µM.

`CO[C@H]1CC[C@]2(CC1)Cc1ccc(Oc3cc(Cl)cc(Cl)c3)cc1C21N=C(N)N(C)C1=O` (stereo partly drawn) [Compound 593] showed an IC50 of 0.006 µM.

The molecule `CN1C(=O)C2(N=C1N)c1cc(OCC(F)(F)F)ccc1C[C@]21CC[C@@H](OC(F)F)CC1` (stereo partly drawn) [Compound 557] showed an IC50 of 0.008 µM.

As for `COC1CCC2(CC1)Cc1ccc(OCCN(C)C)cc1C21N=C(N)N(C)C1=O` (stereo not drawn) [Compound 235], 0.368 µM corresponded to half-maximal inhibition (IC50).

Regarding `CO[C@H]1CC[C@]2(CC1)Cc1ccc(N3CCCC3=O)cc1C21N=C(N)N(C)C1=O` (stereo partly drawn) [Compound 549], the midpoint of inhibition, the IC50, lay at 0.11 µM.

The molecule `CCCO[C@H]1CC[C@]2(CC1)Cc1ccc(-c3cccc(OC)c3)cc1C21N=C(N)N(C)O1` (stereo partly drawn) [Compound 596] had an IC50 of 0.455 µM.

In turn, `COC1CCC2(CC1)Cc1ccc(OC(F)F)cc1C21N=C(N)N(C)C1=O` (stereo not drawn) [Compound 247] gave an IC50 of 0.0554 µM.

Molecule `COC1CCC2(CC1)Cc1ccc(C#CC3CC3)cc1[C@@]21N=C(N)N(C[C@@H]2CCCO2)C1=O` (stereo partly drawn) [Compound 336] showed an IC50 of 0.207 µM.

With `CO[C@H]1CC[C@]2(CC1)Cc1ccc(Oc3ccccc3)cc1[C@@]21N=C(N)N(C)C1=O` [Compound 577], it took 0.248 µM to reach half-maximal inhibition (IC50).

As to `COCC(C)N1C(=O)[C@]2(N=C1N)c1cc(CCC3CC3)ccc1CC21CCC(OC)CC1` (stereo partly drawn) [Compound 350], the midpoint of inhibition, the IC50, lay at 0.481 µM.

`COC1CCC2(CC1)Cc1ccc(N3CCCC3)cc1C21N=C(N)N(C)C1=O` (stereo not drawn) [Compound 232] gave an IC50 of 0.145 µM.

The molecule `COC1CCC2(CC1)Cc1ccc(Br)cc1C21CSC(N)=N1` (stereo not drawn) [Compound 444] displayed an IC50 of 1.45 µM.

The molecule `CO[C@H]1CC[C@]2(CC1)Cc1ccc(C#CC3CC3)cc1C21N=C(N)N(CC(=O)O)C1=O` (stereo partly drawn) [Compound 524] returned a 50% inhibitory concentration (IC50) of 0.005 µM.

In turn, `CN1C(=O)C2(N=C1N)c1cc(Br)ccc1CC21CNC1` (stereo not drawn) [Compound 570] came in with a half-inhibitory concentration (IC50) of 13.5 µM.

On to `CO[C@H]1CC[C@]2(CC1)Cc1ccc(C(C)C)cc1C21N=C(N)N(C)O1` (stereo partly drawn) [Compound 497], for which the IC50 is 0.144 µM.

`CO[C@H]1CC[C@]2(CC1)Cc1ccc(Br)cc1[C@@]21N=C(N)N([C@@H](C)CO)C1=O` [Compound 587] returned an IC50 of 13.5 µM.

The molecule `COC1CCC2(CC1)Cc1ccc(OCC3CC3)cc1C21N=C(N)N(C)C1=O` (stereo not drawn) [Compound 244] showed an IC50 of 0.0035 µM. This IC50 lies about 3900-fold lower than the previous one.

`COC1CCC2(CC1)Cc1ccc(C#CC3CC3)cc1[C@]21N=C(N)N(C[C@H]2CCCO2)C1=O` (stereo partly drawn) [Compound 335] came in with an IC50 of 0.0022 µM.

On to `CO[C@H]1CC[C@]2(CC1)Cc1ccc(CC(C)(C)C)cc1C21N=C(N)N(C(C)C)C1=O` (stereo partly drawn) [Compound 509], for which inhibition was half-maximal at 0.267 µM (IC50).

For the molecule `CO[C@H]1CC[C@]2(CC1)Cc1ccc(OC(C)C)cc1C21N=C(N)N(C)O1` (stereo partly drawn) [Compound 505], half-maximal inhibition (IC50) required 0.171 µM.

For `CO[C@H]1CC[C@]2(CC1)Cc1ccc(Cl)cc1C21N=C(N)N(C)O1` (stereo partly drawn) [Compound 546], the IC50 worked out at 0.212 µM.

On to `COC1CCC2(CC1)Cc1ccc(Oc3ccccc3)cc1C21N=C(N)N(C)C1=O` (stereo not drawn) [Compound 248], for which the IC50 was 0.048 µM.

As to `CN1C(=O)C2(N=C1N)c1cc(Br)ccc1CC21CCC(Cc2ccccc2)CC1` (stereo not drawn) [Compound 265], half-maximal inhibition (IC50) required 0.634 µM.

With `CO[C@H]1CC[C@]2(CC1)Cc1ccc(Br)cc1[C@@]21N=C(N)N(Cc2cnccn2)C1=O` [Compound 586], the IC50 was 2.12 µM.

Consider `COCCN1C(=O)C2(N=C1N)c1cc(CCC(C)C)ccc1C[C@]21CC[C@@H](OC)CC1` (stereo partly drawn) [Compound 513], for which 0.009 µM corresponded to half-maximal inhibition (IC50). This IC50 lies about 240-fold lower than the previous one.

`CO[C@H]1CC[C@]2(CC1)Cc1ccc(C#CC3CC3)cc1C21N=C(N)N(CC(N)=O)C1=O` (stereo partly drawn) [Compound 542] showed an IC50 of 0.011 µM.

Turning to `CO[C@H]1CC[C@]2(CC1)Cc1ccc(Oc3cccc(Cl)c3)cc1C21N=C(N)N(C)O1` (stereo partly drawn) [Compound 594], inhibition was half-maximal at 0.099 µM (IC50).

Turning to `CO[C@H]1CC[C@]2(CC1)Cc1ccc(Cl)cc1C21N=C(N)N(C(C)C)C1=O` (stereo partly drawn) [Compound 531], the IC50 was determined as 0.169 µM.

Take `CCC(C)N1C(=O)C2(N=C1N)c1cc(C#N)ccc1C[C@]21CC[C@@H](OC)CC1` (stereo partly drawn) [Compound 481]: the IC50 was 0.274 µM.

`CO[C@H]1CC[C@]2(CC1)Cc1ccc(Oc3ccccc3)cc1[C@]21N=C(N)N(C)C1=O` [Compound 578] displayed an IC50 of 0.0039 µM. Compared with the last molecule, the IC50 is about 70-fold lower.

In turn, `CO[C@H]1CC[C@]2(CC1)Cc1ccc(OCC(F)(F)F)cc1C21N=C(N)N(CC(F)(F)F)C1=O` (stereo partly drawn) [Compound 553] registered an IC50 of 0.034 µM.

In turn, `CO[C@H]1CC[C@]2(CC1)Cc1ccc(-c3ncco3)cc1C21N=C(N)N(CCF)C1=O` (stereo partly drawn) [Compound 529] returned an IC50 of 0.128 µM.

In the case of `COCCN1C(=O)C2(N=C1N)c1cc(OC(F)F)ccc1C[C@]21CC[C@@H](OC)CC1` (stereo partly drawn) [Compound 534], the IC50 was found to be 0.128 µM.

Regarding `COCCN1C(=O)C2(N=C1N)c1cc(C3CC3)ccc1C[C@]21CC[C@@H](OC)CC1` (stereo partly drawn) [Compound 536], the IC50 was found to be 0.172 µM.

Take `CN1C(=O)C2(N=C1N)c1cc(C#CC3CC3)ccc1O[C@]21CC[C@@H](OC(F)F)CC1` (stereo partly drawn) [Compound 583]: the IC50 came out at 0.268 µM. This IC50 lies about 1.6-fold higher than the previous one.

`CN1C(=O)C2(N=C1N)c1cc(Br)ccc1CC21CCc2ccccc2CC1` (stereo not drawn) [Compound 56] registered an IC50 of 0.204 µM.

On to `COC1CCC2(CC1)Cc1ccc(CCC3CC3)cc1C21N=C(N)N(Cc2cncs2)C1=O` (stereo not drawn) [Compound 386], for which the IC50 worked out at 0.0078 µM.

For `CO[C@H]1CC[C@]2(CC1)Cc1ccc(C#N)cc1C21N=C(N)N(CCc2nccs2)C1=O` (stereo partly drawn) [Compound 573], the IC50 is 0.0579 µM.

`CO[C@H]1CC[C@]2(CC1)Cc1ccc(C#N)cc1C21N=C(N)N(C)O1` (stereo partly drawn) [Compound 547] came in with an IC50 of 0.157 µM.

In the case of `CCN1C(=O)C2(N=C1N)c1cc(CCC(C)C)ccc1C[C@]21CC[C@@H](OC)CC1` (stereo partly drawn) [Compound 514], the IC50 turned out to be 0.008 µM.

As to `CO[C@H]1CC[C@]2(CC1)Cc1ccc(Br)cc1[C@@]21N=C(N)N([C@H](C)CO)C1=O` [Compound 588], the midpoint of inhibition, the IC50, lay at 19.4 µM.

As for `CO[C@H]1CC[C@]2(CC1)Cc1ccc(OCC3CCC3)cc1C21N=C(N)N(C(C)C)C1=O` (stereo partly drawn) [Compound 506], it took 0.0343 µM to reach half-maximal inhibition (IC50).

`COC1CCC2(CC1)Cc1cc(F)c(C#CC3CC3)cc1C21N=C(N)N(C)C1=O` (stereo not drawn) [Compound 255] gave an IC50 of 0.618 µM.

`CN1C(=O)C2(N=C1N)c1cc(Br)ccc1O[C@]21CC[C@@H](OC(F)F)CC1` (stereo partly drawn) [Compound 584] displayed an IC50 of 0.424 µM. This IC50 and that of the molecule before are within 1.5-fold of each other.

`CN1OC2(N=C1N)c1cc(-c3cccc(C#N)c3)ccc1CC21CCC(Cc2ccccc2)CC1` (stereo not drawn) [Compound 120]: the IC50 came to 3.5 µM. Against the preceding molecule, the IC50 is about 8.3-fold higher.

The values are drawn from patent US8633212B2, “Inhibitors of beta-secretase” (Vitae Pharmaceuticals, Inc., priority 2009, dated 2014).
